These results are taken from PubChem BioAssay AID1508623 (National Center for Advancing Translational Sciences (NCATS), 2021).

Screen size: about 48,000 compounds; about 450 (0.94%) were called active. About 19% were inconclusive and are not listed. The call rests on the fitted dose curve; in most records, active means well fitted inhibition curve with a large enough effect; inconclusive means small, poorly fitted or top-dose-only effect; inactive means no such curve, though single readings can be large or run the other way. This is one part of the list.

This assay in a line: Primary qHTS for Identification of Small Molecule Inhibitors of Huntingtin Promoter Activity. Further: nearly all actives have a fitted effect of over 50% in size. The settings on record: HEK293 HTT promoter firefly luciferase reporter (activity 0% = vehicle and -100% = no light), 24 h; series mostly up to 57.5 µM; activity change, negative = inhibition: at the top concentration. The essentials: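 HEK293 Fluc reporter, 2,500 cells/well, 24 h pre-culture; cpds up to 57.5 uM final, 24 h 37 degrees C; Dual-Glo, 10 min RT; normalized vehicle = 0%, zero RLU = -100%.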
In general terms: In qHTS, concentration-response curves come from the screen itself.
Regarding `COc1ccc(NC(=O)C2CCCN(c3cnccn3)C2)c(OC)c1` (stereo not drawn), the “activity change, negative = inhibition” value was inactive: 0.565%. To `CCC(Cc1ccccc1)NC(=O)CCS(=O)(=O)c1cc2c(cc1Cl)NC(=O)CO2` (stereo not drawn) belongs inactive: -9.32%. As to `Cc1ccc(NC(=O)CSc2cn(CC(=O)N3CCOCC3)c3ccccc23)cc1Cl`, the “activity change, negative = inhibition” value is inactive: -19%. Take `Cn1c(=O)c2nc3ccc(NC(=O)C(F)(F)F)cc3nc2n(C)c1=O`: the “activity change, negative = inhibition” value was inactive: 13.8%. To `Cc1ccc2c(c1)C(c1ccccc1)N(C(=O)c1ccc(S(=O)(=O)N3CCCC3)cc1)CC(=O)N2` (stereo not drawn) belongs inactive: -25.8%; to `N=C(N)c1ccc(OCCCCCOc2ccc(C(=N)N)cc2)cc1`, inactive: -18.3%. For the compound `Cc1ccc(NC(=O)CN2C(=O)CSc3ccc(S(=O)(=O)N(C)C)cc32)c(C)c1`, the “activity change, negative = inhibition” value is inactive: -30.9%. For `O=S(=O)(c1ccccc1)c1nnn2c1nc(N1CCN(c3ccccc3)CC1)c1cc(Cl)ccc12`, the “activity change, negative = inhibition” value was inactive: 8.48%.

Take `COc1ccc2sc(N(Cc3cccnc3)C(=O)C3COc4ccccc4O3)nc2c1` (stereo not drawn): the “activity change, negative = inhibition” value was inactive: -3.15%. Consider `NS(=O)(=O)OC[C@@H]1C[C@@H](n2ccc3c(N[C@H]4CCc5ccccc54)ncnc32)C[C@H]1O`, for which the “activity change, negative = inhibition” value is inactive: -1.69%. The result for `CCOC(=O)/C(C#N)=C/c1ccc(-c2ccccc2)o1` reads inactive: 44.5%; that for `O=C(Cn1cc2c(n1)CCCC2)Nc1cc(C(F)(F)F)ccc1Cl`, inactive: -30.2%.

As to `Cc1nc(SCc2ccccc2Cl)c(C#N)c(C)c1C`, the “activity change, negative = inhibition” value was inactive: 4.47%.

Turning to `Cc1cc(C)cc(NC(=O)c2sc3nc4n(c(=O)c3c2C)N=C(c2ccc(F)cc2)CS4)c1`, the “activity change, negative = inhibition” value is inactive: -11.3%. To `CCc1cccc(NC(=O)CSc2n[nH]c(-c3ccccc3Cl)n2)c1` belongs inactive: -23.2%; to `Cc1nnc(N2CCN(c3cccc(Cl)c3)CC2)c2c1nnn2Cc1ccc(F)cc1`, inactive: -4.97%; to `Cn1c(NCCN(CCO)CCCc2ccc([N+](=O)[O-])cc2)cc(=O)n(C)c1=O`, “inactive”. To `CCOc1ccc(OCC)c(NC(=O)c2cnn(-c3ccc(F)cc3)c2C2CCN(C(=O)OC(C)(C)C)CC2)c1` belongs inactive: -10.5%.

Turning to `CCCNC(=O)Cn1ncc2c3ccccc3n(CCC)c2c1=O`, the “activity change, negative = inhibition” value was inactive: -13.1%. To `COc1ccc(-n2ccnc(NCc3cccs3)c2=O)cc1` belongs inactive: -16.2%; to `CCOc1ccc(-n2c(C)nc3cc(C(=O)NCc4ccc(C)cc4)ccc32)cc1`, inactive: -28.2%; to `COc1ccc(-c2ccc(-c3noc(-c4cc(OC)cc(OC)c4)n3)c(OC)n2)cc1`, inactive: 4.09%. To `Cc1ccc(C(=O)Nc2nnc(S(=O)(=O)N(C)Cc3ccc(F)cc3)s2)cc1` belongs inactive: 8.38%; to `CC1CCCN(c2nc(-c3ccccc3O)nc3ccccc23)C1` (stereo not drawn), inactive: -5.13%; to `O=c1c2c3c(sc2nnn1Cc1ccc(F)cc1)CCCC3`, inactive: -28.1%. To `CC(=O)N1CCc2c(sc3c2c(=O)n(-c2ccccc2)c(=O)n3CC(=O)Nc2ccccc2C)C1` belongs inactive: -6.41%; to `COc1ccc(NC(=O)c2oc3ccccc3c2NC(=O)c2cc3ccccc3o2)cc1`, inactive: 4.49%; to `CCOc1ccc(NS(=O)(=O)c2ccc3[nH]cc(C(=O)N(C)Cc4ccccc4)c(=O)c3c2)cc1`, inactive: 4.05%. `COc1ccc2c(c1)CC(NC(=O)Nc1c(C)cc(C)cc1C)CO2` (stereo not drawn): the “activity change, negative = inhibition” value is inactive: -1.41%. On to `CCOc1ccc(NC(=O)CSc2nnc3scc(-c4ccc(Cl)cc4)n23)cc1`, for which the “activity change, negative = inhibition” value is inactive: -7.75%. Consider `Cc1cccc(-n2c3nc(=O)[nH]c(=O)c-3cc3c(Cl)cccc32)c1C`, for which the “activity change, negative = inhibition” value was inactive: -35.2%. The result for `O=C(NCC(c1ccco1)S(=O)(=O)c1cccs1)c1ccc(F)cc1` (stereo not drawn) reads inactive: 17%; that for `CC(=O)Nc1ccc(C2Sc3ccccc3NC3=C2C(=O)c2ccccc23)cc1` (stereo not drawn), inactive: 29%; that for `CCOC(=O)c1ccc2oc(=O)n(Cc3ccccc3)c2c1`, inactive: 0%. With `Cc1oc2ncn(CC(C)C)c(=O)c2c1C(=O)NCCCN1CCCCC1`, the “activity change, negative = inhibition” value is inactive: -16.8%. To `Cc1cc(C)c(NC(=O)c2cc3sc(Cl)cc3n2C)c(C)c1` belongs inactive: -16.8%; to `COc1ccccc1CNC(=O)c1ccc(N2CCCC2)c(NC(=O)NCCC(C)C)c1`, inactive: -23.6%. `O=C(COc1ccc(F)cc1)Nc1ccc2nc(SCC(=O)N3CCc4ccccc43)sc2c1`: the “activity change, negative = inhibition” value was inactive: -10.4%. For `COc1cccc(NC(=O)CSc2ncc(S(=O)(=O)c3ccc(C)c(C)c3)c(=O)[nH]2)c1`, the “activity change, negative = inhibition” value is inactive: -3.44%.

With `CC(=O)c1ccc(N2CCN(S(=O)(=O)c3ccc(-c4cc(C(F)(F)F)on4)s3)CC2)cc1`, the “activity change, negative = inhibition” value is inactive: -4.09%. Regarding `Cc1ccccc1OCC(=O)OCc1cc(=O)n2nc(C3CCCCC3)sc2n1`, the “activity change, negative = inhibition” value is inactive: -2.24%. As to `CCc1c(-c2ccccc2)nc2ccccc2c1C(=O)NCCc1ccccc1`, the “activity change, negative = inhibition” value is inactive: 1.44%. Take `Cc1csc2nc(COc3ccccc3NC(=O)c3ccco3)cc(=O)n12`: the “activity change, negative = inhibition” value was inactive: -3.54%. Regarding `CSc1cccc(NC(=O)Cn2c3ncccc3c(=O)n2-c2ccc(C)cc2)c1`, the “activity change, negative = inhibition” value is inactive: -2.02%. To `Cc1ccc2c(=O)cc(C(=O)Nc3cccc(Cl)c3C)oc2c1C` belongs inactive: -4.76% [at 11.5 µM]; to `COc1ccc(OCCCCn2c(-c3ccc(Cl)cc3)nc3ccccc3c2=O)cc1`, inactive: 3.08%; to `CCCCCOC(=O)CSc1ncnc2c1sc1nc(N3CCOCC3)c3c(c12)CCCC3`, inactive: -3.58%.

Take `CCC(=O)N1CCN(c2ccc(-n3c(=O)ccc4cnc5ccc(-c6cnc7ccccc7c6)cc5c43)cc2C(F)(F)F)CC1`: the “activity change, negative = inhibition” value was inactive: -28.8%. The result for `Cc1cc(Nc2cccc(C)c2C)n2cnnc2n1` reads inactive: 2.6%; that for `Cn1c(=O)c2c(-c3ccccc3Cl)n(-c3cc(Cl)ccc3O)cc2n(C)c1=O`, inactive: -15.3%. To `Cc1ccc(C)c(-n2c(CCC(=O)O)ccc2-c2ccc(Cl)cc2)c1` belongs inactive: -22.7%. The result for `COc1ccc(CNC(=O)c2c(O)nc3cc(C)ccn3c2=O)cc1` reads inactive: -4.01%. `CCc1ccc2ncc3c(-c4ccc(F)cc4)nn(CC(=O)NCc4ccccc4)c3c2c1`: the “activity change, negative = inhibition” value was inactive: 3.12%. The result for `CC(C)CC(C(=O)NCc1ccc(F)cc1)N1Cc2ccccc2C1=O` (stereo not drawn) reads inactive: -23.5%; that for `CCOc1ccc(-c2nc(SCC(=O)Nc3ccc(C)c(C)c3)n3[nH]c(=O)cc3n2)cc1`, inactive: -10.3%. To `Cc1ccc(C(C)C)c(OCC(=O)Nc2ccc(C(=O)OC3CCCCC3)cc2)c1` belongs inactive: 4.33%; to `CCc1nnc(SCc2nc(-c3ccc(OC)c(OC)c3)oc2C)c2cc3sc(C)cc3n12`, inactive: -5.4%. To `Cc1ccc(/C=C/c2onc(C)c2S(=O)(=O)N2CCC(C(=O)NCc3ccc(C)o3)CC2)cc1` belongs inactive: -20.2%; to `COc1cccc(CNC(=O)Cc2ccc(NC(=O)N3CCCCc4ccccc43)cc2)c1OC`, inactive: -25.2%; to `Cc1cc(C)cc(N2C(=O)CSC23C(=O)N(CC(=O)NCCc2ccccc2)c2ccccc23)c1` (stereo not drawn), inactive: -3.97%. On to `O=c1[nH]c(=O)c2[nH]c(=O)[nH]c2[nH]1`, for which the activity change, negative = inhibition is inactive: -5.97% [at 11.5 µM]. Regarding `CC(C)Oc1ccc(CNC(=O)CN2C(=O)CCc3cc(S(=O)(=O)N4CCCCC4)ccc32)cc1`, the “activity change, negative = inhibition” value was inactive: -23.9%. For `COc1ccc(NC(=O)CCS(=O)(=O)c2cccc3nonc23)cc1Cl`, the “activity change, negative = inhibition” value is inactive: -12.7%. The result for `COc1ccccc1NCc1cccn1-c1nnc(N2CCOCC2)s1` reads inactive: 3.46%; that for `Cc1oc2ncn(C)c(=O)c2c1C(=O)NC(C)c1ccccc1` (stereo not drawn), inactive: -16.1%.

Take `O=C(CSC1=Nc2ccccc2N=C(c2ccc(F)cc2)C1)NCc1ccc(F)cc1`: the “activity change, negative = inhibition” value was inactive: -11.8%. The result for `Cc1ccc(C)c(CN2C(=O)CSc3ccc(C(=O)NCc4ccc(F)cc4)cc32)c1` reads inactive: -11.9%; that for `CCC(=O)N1c2nc(-c3ccco3)nn2C2(CCCCC2)[C@@H]2CCCC[C@@H]21`, inactive: -11%.

For the compound `Cc1ccc(CSc2nc3cccnc3n2Cc2ccc(C(=O)NCCc3ccccc3)cc2)cc1`, the “activity change, negative = inhibition” value was inactive: 6.91%. The result for `CCS(=O)(=O)N1CCc2cc(C(=O)Nc3cccc(Cl)c3C)ccc21` reads inactive: 28.1%; that for `CCOc1c(Cl)cc(Cl)cc1CNCCSc1nnnn1C`, inactive: -10.6%. To `COc1ccc(N2CCN(C(CNC(=O)C(=O)NCCCN(C)C)c3cccnc3)CC2)cc1` (stereo not drawn) belongs inactive: -8.33%. On to `O=C(Nc1cc2c(cc1C(=O)c1ccccc1Cl)OCCO2)c1ccc(Br)cc1`, for which the “activity change, negative = inhibition” value was inactive: -11.8%. To `Cc1nc2c(-c3ccccc3)c(C)nn2c(C)c1CCC(=O)NCc1ccccc1Cl` belongs inactive: -7.77%. Consider `Cc1ccc(-n2nnnc2CNC(=O)c2ccccc2S(C)(=O)=O)cc1C`, for which the “activity change, negative = inhibition” value is inactive: -0.0304%. With `Nc1nc(OCc2ccccc2)c2[nH]cnc2n1`, the “activity change, negative = inhibition” value is inactive: 2.04%. The result for `FC(F)(F)c1cc(-c2ccccc2)nc2cc(-c3ccc(Br)cc3)nn12` reads inactive: -1.15%; that for `O=C(CCC(=O)OCC(=O)c1ccc(Cl)cc1)Nc1ccc(Oc2ccccc2)cc1`, inactive: -10.4%; that for `CCCn1cc(S(=O)(=O)c2cc(C)ccc2C)c(=O)c2cc(F)c(N3CCOCC3)cc21`, inactive: 14.9%. For the compound `CCc1ccc2occ(CC(=O)Nc3c(C(=O)Nc4ccc(C)cc4)oc4ccccc34)c2c1`, the “activity change, negative = inhibition” value is inactive: 7.01%.

As to `COC(=O)c1c(SCC(=O)Nc2cc(C)cc(C)c2)[nH]c2ccccc2c1=O`, the “activity change, negative = inhibition” value is inactive: -23.1%. To `CCCNc1ncnc2onc(C)c12` belongs inactive: -24.5%; to `Cc1ccc(C(=O)n2nc(C)c(S(=O)(=O)N3CCOCC3)c2C)cc1`, inactive: -5.66%. Turning to `CC(C)c1cnc2c(c1SCC(=O)Nc1ccccc1C(F)(F)F)c(=O)n(C)c(=O)n2C`, the “activity change, negative = inhibition” value is inactive: -1.04%. As for `COc1ccc(-n2nc(C(=O)Nc3ccccc3OC)c3c4ccccc4n(C)c3c2=O)cc1Cl`, the “activity change, negative = inhibition” value was inactive: 0.432%. Turning to `Cc1ccc(CSc2nc(-c3cccs3)ccc2C#N)cc1`, the “activity change, negative = inhibition” value is inactive: -18.5%. Turning to `Cc1nnc(SCc2ccc(Cl)cc2)c2cc3occc3n12`, the “activity change, negative = inhibition” value was inactive: -9.03%. Consider `Cc1cccc(N2CCN(c3cc(C)nc4c(-c5ccc(Cl)cc5)c(C)nn34)CC2C)c1` (stereo not drawn), for which the “activity change, negative = inhibition” value is inactive: -22.1%. The result for `Cc1noc(Cn2c(=O)c3ccccc3n(CC(=O)Nc3cccc(Cl)c3C)c2=O)n1` reads inactive: 2.49%; that for `COc1ccc(CCN(C)CCCC(C#N)(c2ccc(OC)c(OC)c2)C(C)C)cc1OC` (stereo not drawn), “inactive”; that for `CC(=O)N1CCCc2cc(S(=O)(=O)N(C)CC(=O)Nc3ccc(C)cc3C)ccc21`, inactive: -5.64%. In the case of `CC[N+]1(CC)CCC(=C(c2ccccc2)c2ccccc2)C1C` (stereo not drawn), the “activity change, negative = inhibition” value was inactive: 1.39%. As to `N#Cc1nc(/C=C/c2ccc(F)cc2)oc1N1CCN(c2ccccc2)CC1`, the “activity change, negative = inhibition” value was inactive: -12%.

Turning to `O=C(Nc1cccc(NC(=O)c2ccc(Br)o2)c1)c1ccccc1`, the “activity change, negative = inhibition” value was inactive: 12.7%. The result for `COc1cccc(C2c3c(oc4ccc(C)cc4c3=O)C(=O)N2CCCN2CCOCC2)c1OC` (stereo not drawn) reads inactive: -2.96%; that for `Cc1cccc(-c2noc(-c3cccnc3NCc3ccco3)n2)c1`, inactive: 63.8%. Consider `CC1=C(CC(=O)O)c2cc(F)ccc2/C1=C\c1ccc(S(C)=O)cc1` (stereo not drawn), for which the “activity change, negative = inhibition” value was inactive: 7.92%. Turning to `CCCn1c2ccccc2c2cnn(CC(=O)N3CCC(C(=O)OCC)CC3)c(=O)c21`, the “activity change, negative = inhibition” value is inactive: -15.2%.
